Reference: article PMC6919601, “Identification of Plasmodium dipeptidyl aminopeptidase allosteric inhibitors by high throughput screening” (PLoS ONE, 2019)
About 230 (0.21%) of roughly 110,000 compounds showed an effect of 50% or more. Some of the results follow.

target: DPAP1 (Plasmodium falciparum, UniProt Q8IIJ9); test: primary screen, percent inhibition; read by cleavage of a fluorogenic dipeptide substrate; higher = more effect of the substance; parameters: species or system P. falciparum D10 trophozoite lysates; single well
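Note: 30 min substrate incubation versus DMSO and 10 µM JCP410 controls.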

Sequence of DPAP1 (Q8IIJ9 whole entry, looked up): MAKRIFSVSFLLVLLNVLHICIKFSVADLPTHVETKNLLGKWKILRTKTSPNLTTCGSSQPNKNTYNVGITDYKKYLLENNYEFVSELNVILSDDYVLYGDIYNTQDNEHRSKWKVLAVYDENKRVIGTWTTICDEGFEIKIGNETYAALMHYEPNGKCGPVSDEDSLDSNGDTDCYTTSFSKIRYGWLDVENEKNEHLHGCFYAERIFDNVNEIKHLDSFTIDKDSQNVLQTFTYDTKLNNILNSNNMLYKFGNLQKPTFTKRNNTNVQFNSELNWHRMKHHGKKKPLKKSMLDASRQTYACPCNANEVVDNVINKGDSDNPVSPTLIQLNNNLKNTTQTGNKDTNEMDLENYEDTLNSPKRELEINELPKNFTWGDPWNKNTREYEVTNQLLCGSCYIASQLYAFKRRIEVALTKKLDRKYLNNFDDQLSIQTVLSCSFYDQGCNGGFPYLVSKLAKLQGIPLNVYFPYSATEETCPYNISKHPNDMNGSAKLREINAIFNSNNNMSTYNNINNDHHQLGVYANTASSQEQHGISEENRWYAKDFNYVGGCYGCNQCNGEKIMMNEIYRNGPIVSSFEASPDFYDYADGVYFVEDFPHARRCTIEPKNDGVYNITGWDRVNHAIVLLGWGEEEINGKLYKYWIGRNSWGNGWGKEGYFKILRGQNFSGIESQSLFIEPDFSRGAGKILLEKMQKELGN

| Compound | % Inhibition @ 10 uM |
| --- | --- |
| CCCCOc1ccc(C(C)(CC(=O)O)C(=O)O)cc1 (stereo not shown) | -1.68% |
| COc1ccc(-c2nc(N)n(S(=O)(=O)c3ccc(Cl)cc3)n2)cc1 | -5.29% |
| CN1CCCC1CCNS(=O)(=O)c1ccc(Br)cc1 (stereo not shown) | -0.48% |
| CCCc1[nH]nc2c1C(c1ccc3c(c1)OCO3)C(C#N)=C(N)O2 (stereo not shown) | 2.36% |
| COC(=O)c1sccc1NC(=O)c1sc2nc3n(c(=O)c2c1C)CCCCC3 | 3.44% |
| CCn1ncc(Cl)c1C(=O)Nc1cc2oc3ccccc3c2cc1OC | -1.37% |
| COc1ccc(CN2CC(C)OC(C)C2)cc1 (stereo not shown) | -1.22% |
| Cc1nc2sccn2c(=O)c1S(=O)(=O)NCc1ccncc1 | 3% |
| CCCNC(=O)c1ccc2nc(N3CCCCC3)sc2c1 | -0.85% |
| CCOC(=O)N1CCN(c2c(NCc3cccnc3)c(=O)c2=O)CC1 | 5.09% |
| CCOc1ccc(CCN2CN(CC)CNC2=S)cc1OCC | 1.32% |
| O=C(/C=C/c1ccccc1)Nc1ccccc1C(=O)O | -0.415% |
| CCCN(CCC)C(=O)c1cnn(-c2ccc(F)cc2)c1-n1cccc1 | -5.18% |
| COc1ccccc1Oc1coc2cc(O)ccc2c1=O | -2.91% |
| COc1cc(C(c2c(C)n(C)n(-c3ccccc3)c2=O)c2c(C)n(C)n(-c3ccccc3)c2=O)ccc1O | -1.05% |
| O=C(CCCn1sc2ccccc2c1=O)NCCC1=CCCCC1 | -2.84% |
| CCCCCCOc1ccc(N2C(=O)CC(N3CCOCC3)C2=O)cc1 (stereo not shown) | 2.08% |
| CCCN(Cc1cc2cccc(C)c2nc1O)S(C)(=O)=O | 5.7% |
| Cc1cccc(CCNC(=O)c2sc3nc4n(c(=O)c3c2C)CCCCC4)c1 | -0.788% |
| CCOc1ccc(C(=O)Nc2cccc3cccnc23)cc1 | 1.61% |
| Cc1nn(-c2ccccc2)c2c1C(c1ccc(OCc3ccccc3)cc1)SCC(=O)N2 (stereo not shown) | -3.63% |
| COc1ccc(C(=O)Nc2nc(C)c(C)s2)c(OC)c1 | -0.999% |
| COC(=O)C1=CN(C(C)C)C=C(C(=O)OC)C1c1ccc(C(F)(F)F)cc1 | -3.23% |
| CC(=O)c1sc(N2C(=O)C(O)=C(C(=O)c3cc4ccccc4o3)C2c2ccc(F)cc2)nc1C (stereo not shown) | -1.82% |
| OCc1nc2cc3[nH]c(O)nc3cc2[nH]1 | 0.0538% |

| Compound | % Inhibition @ 10 uM |
| --- | --- |
| CC1CC(C)(C)NC(=S)N1CCC(=O)NCc1ccco1 (stereo not shown) | 7.39% |
| CCOc1c([N+](=O)[O-])cc2c(C)c(C(=O)O)oc2c1OCC | 4.54% |
| Cc1ccc2oc(=O)c3cnn(CC(=O)NC4CCCCC4)c3c2c1 | -3.45% |
| Cn1nc(C(=O)NCC2CCCO2)c2c1-c1ccccc1S(=O)(=O)C2 (stereo not shown) | -0.788% |
| CC(C)CCn1c(=O)c2ccccc2n2c(CCC(=O)NCCN3CCCC3)nnc12 | 8.05% |
| CCOc1cccc(OCC)c2c(C)[n+](-c3ccc(OC)cc3)c(C)c1-2 | -3.53% |
| CC1CC(C)CN(C(=O)C2CCN(S(=O)(=O)c3cccs3)CC2)C1 (stereo not shown) | 6.29% |
| COc1ccccc1N1CCN(CC(O)COC(C)C)CC1 (stereo not shown) | -13.3% |
| O=C(Nc1ccc(S(=O)(=O)N2CCCCCC2)cc1)c1ccccc1 | 2.55% |
| Cc1ccc2[nH]c(/C(C#N)=C/c3cccc4ccccc34)nc2c1 | 1.76% |
| CCCNC(=O)C1CC(c2cc(OC)ccc2OC)=NO1 (stereo not shown) | -5.79% |
| CC1=CC2=NC(=O)/C(=C\c3cccn3CCOc3ccc(Cl)c(C)c3)C(=N)N2O1 | -3.23% |
| Cc1ccc(/C=C2/N=C(c3cccc(Cl)c3Cl)OC2=O)o1 | -4.57% |
| N#CC1=C2SCN(Cc3ccccc3)CN2C(=O)CC1c1cccc2ccccc12 (stereo not shown) | 51.5% |
| CCCCSc1snc(O)c1C#N | -1.94% |
| N#C/C(=C\c1ccccc1Cl)c1nc(-c2cc3ccccc3oc2=O)cs1 | 3.06% |
| CC(=O)N1C(=N)S/C(=C/c2cc3ccc(C)cc3nc2O)C1=O | 0.275% |
| CCOc1ccc(-n2cc(-c3ccc(Br)cc3)nc2O)cc1 | 1.23% |
| Cc1nc2ccn(Cc3cccnc3)c(=O)c2cc1C(=O)NCC1CCCO1 (stereo not shown) | -3.62% |
| CN1CCN(c2nc(-c3ccc(C(=O)N4CCCC(C(=O)NCC#N)C4)cc3)cs2)CC1 (stereo not shown) | 0.079% |
| C=Cc1ccc(Cn2c(C(=O)O)c(CNCCc3ccccc3C)c3ccc(C)cc32)cc1 | 0.00226% |
| Cc1ccc(C2=NN3C(C2)c2cc(Br)ccc2OC3c2ccncc2)s1 (stereo not shown) | 0.628% |
| CCOc1ccc(OCc2cccc(C(=O)N3N=C(C(F)F)CC3(O)C(F)F)c2)cc1 (stereo not shown) | -5.6% |
| Cc1cc(NC(=O)CSc2nc3nccnc3c(=O)n2Cc2ccccc2Cl)[nH]n1 | -8.34% |
| COc1ccc(CC(=O)Nc2ccc(Oc3ccccc3)cc2)cc1 | -0.0925% |

| Compound | % Inhibition @ 10 uM |
| --- | --- |
| Cc1nc(NCCCO)c2c3c(sc2n1)CCC3 | 2.5% |
| N#CCCS(=O)(=O)c1cc(Cl)ccc1Cl | -0.736% |
| CCc1sc(NC(=O)CCC(=O)O)nc1-c1ccccc1 | 0.22% |
| CC1CCN(S(=O)(=O)c2ccc(NC(=O)c3ccc(Cl)cc3)cc2)CC1 | 4.75% |
| O=C(/C=C/c1ccccc1Cl)NCCc1ccccc1 | -0.351% |
| CS(=O)(=O)N(CC(=O)Nc1ccc2c(c1)OCCO2)c1cccc(F)c1 | 69.8% |
| Cc1ccc(NC(=O)CSCc2ccc(C#N)cc2)cc1 | 4.3% |
| CC(CN1CCCC1CO)c1ccccc1 (stereo not shown) | -2.56% |
| CCOc1ccc(N2C(=O)C3C4C=CC(C4=C(C)C)C3C2=O)cc1 (stereo not shown) | -2.8% |
| CCCC[C@@H](NC(=O)OCc1ccccc1)C(=O)NCC#N | -6.56% |
| CC(C)C[C@H](NC(=O)c1cccc(NC(=O)N(C)C2CCN(Cc3ccccc3)C2)c1)C(=O)NCC#N (stereo partly shown) | -2.35% |
| CC1=NN(c2ccc([N+](=O)[O-])cc2)C(=O)/C1=C/c1ccc(N(C)C)cc1 | -6.52% |
| COc1ccc(OC)c(CNC(=O)C(C)n2nc(C)c3c(C)n(-c4ccccc4)nc3c2=O)c1 (stereo not shown) | -1.03% |
| COc1ccc(N2CCN(C(=O)C(C)N(c3ccc(OC)cc3)S(C)(=O)=O)CC2)cc1 (stereo not shown) | -4.93% |
| Cc1ccc2onc(CC(=O)NCc3ccc(F)cc3)c2c1 | -4.42% |
| O=C(NCCN1CCCCC1)c1sc2ccccc2c1Cl | 2.6% |
| Cn1c(=O)[nH]c2nnc(-c3ccc(C(F)(F)F)cc3)nc2c1=O | -1.11% |
| COC(=O)CN(C)C(=O)Oc1ccc(C)cc1 | 1.66% |
| CCCOc1ccc(Oc2nc(NCC(C)C)nc(NC(C)(C)C)n2)nn1 | -1.31% |
| COc1ccc(C(=O)CSc2nc(O)c(C#N)c(-c3ccccc3)n2)cc1 | 3.72% |
| Cc1ccc(CCNCc2c(C(=O)O)n(Cc3ccccc3Cl)c3ccccc23)cc1 | 9.46% |
| CCCn1c(Oc2ccc(Br)cc2)nc2c1c(=O)n(C)c(=O)n2C | -3.37% |
| N#CC1=C(SCc2ccccc2)SC(c2ccccc2O)NC1=O (stereo not shown) | -3.76% |
| OC(C#CCN1CCCCC1)(c1ccccc1)C1CCCCC1 (stereo not shown) | -4.43% |
| Cc1nc(-c2ccc(S(=O)(=O)N3CCC(Cc4ccccc4)CC3)cc2)cs1 | -2.67% |

| Compound | % Inhibition @ 10 uM |
| --- | --- |
| COC(=O)c1[nH]c2sc3c(c2c1-n1cccc1)CCCC3 | 1.52% |
| CCCCn1c2ccccc2c2nnc(SCC(=O)NC3=NC(=O)CS3)nc21 | -1.33% |
| O=C1OC(c2ccc(F)cc2)=N/C1=C\c1ccccc1C(F)(F)F | -0.441% |
| O=C1CCC(C(=O)NCc2ccc(Cl)cc2)N1 (stereo not shown) | -0.8% |
| CCOC(=O)N1CCN(c2c(N3CC=C(c4ccccc4)CC3)c(=O)c2=O)CC1 | -3.21% |
| O=S(=O)(c1ccccc1F)N1CCN(S(=O)(=O)c2ccccc2F)CC1 | 5.63% |
| COc1ccc(C2NCCc3c2[nH]c2ccccc32)cc1O (stereo not shown) | -3.62% |
| CC(C)CC(C(=O)NCC#N)c1ccc(NC(=O)NCc2ccncc2)cc1 (stereo not shown) | -3.97% |
| CC1CCCCN1C(=O)C1CCCN(S(=O)(=O)c2ccccc2)C1 (stereo not shown) | 4.12% |
| CCCN(CCO)C/C(C)=C/c1ccccc1 | -7.93% |
| CC(C)c1ccc(C2C(C(=O)c3ccccc3)=C(O)C(=O)N2Cc2cccnc2)cc1 (stereo not shown) | 6.02% |
| CCCN1CCC(NC(c2ccccc2)c2ccccc2)CC1 | -6.62% |
| CCN1CCC(N2CCCC(C)C2)CC1 (stereo not shown) | -0.0908% |
| O=[N+]([O-])c1ccc(S(=O)(=O)NCc2ccccc2)cc1 | -0.0372% |
| CCC(=O)Nc1ccc2nc(SCC(=O)NCC3CCCO3)sc2c1 (stereo not shown) | -3.9% |
| Cn1ncc(Br)c1C(=O)N1CCc2ccccc21 | -5.69% |
| COc1cc(CN2CCN(c3ccc(C(C)=O)cc3)CC2)cc(OC)c1O | -1.41% |
| CCN1CCCC1CNC(=O)c1ccc2c(c1)sc1nc(-c3ccc(C)cc3)cn12 (stereo not shown) | 9.79% |
| O=C(C1c2ccccc2Oc2ccccc21)N1CCN(Cc2ccccc2)CC1 | -2.8% |
| Cn1c2ccccc2c2nnc(SCC(=O)N3CCN(C45CC6CC(CC(C6)C4)C5)CC3)nc21 | 2.77% |
| Cc1cccn2c(=O)c3cc(C(=O)N(C)Cc4ccccc4)n(C)c3nc12 | 3.72% |
| N=C1S/C(=C\c2ccccc2F)C(=O)N1c1ccccc1F | 6.79% |
| Cc1ccsc1CN1CCN(c2ccccc2F)CC1 | -3.65% |
| COc1ccc(NC(=O)c2ccc([N+](=O)[O-])c(C)c2)cc1Cl | -3.79% |
| CCCC[C@H](NC(=O)[C@H](CS(C)(=O)=O)NC(=O)N1CCOCC1)C(=O)c1nc2ccccc2o1 | -0.214% |
